The record followed here is the supplement of paper PMC7826260.

The list shows a part of the results. One pool of 16,384 single-stranded DNAs met each Rep nickase domain in vitro (1 h at 37 °C, 3 µM enzyme); the outer parts of the 90-letter strands are left off. Uncut reads are compared with the no-enzyme pool on a log2 scale; the lower, the more was cut; hits are not called. The scaling is to total reads; uncut strands gain when others are lost, and binding without cutting may add a little.

Common to all, as to experiment: uncleaved DNA left, log2 of reads against the no-enzyme library (log2 ratio); higher = less cleavage (more negative = more Rep cleavage of the k-mer); sequences stand for … in CTCGTCCG…ACCGGAGA
Assay [1] deals with T1, Rep nickase domain of Muscovy duck circovirus.
T1 sequence (Rep 1-111, printed without the tag): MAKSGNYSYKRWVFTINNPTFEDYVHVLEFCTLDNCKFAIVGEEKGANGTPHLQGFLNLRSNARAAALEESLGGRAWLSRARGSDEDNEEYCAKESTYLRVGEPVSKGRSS
The method, then:
(§1)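 A pool of 90-nt single-stranded DNAs with seven random bases just before the constant AC of the nick site (name = the seven bases) was cut by 3 µM recombinant His6-SUMO-tagged Rep nickase domain (300 nM DNA, 50 mM HEPES pH 8.0, 50 mM NaCl, 1 mM MnCl2, 1 h, 37 °C, three replicates). Uncut DNA was amplified and sequenced.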

In assay [2] the test system is T2, Rep nickase domain of banana bunchy top virus.
T2 sequence (Rep 1-94, printed without the tag): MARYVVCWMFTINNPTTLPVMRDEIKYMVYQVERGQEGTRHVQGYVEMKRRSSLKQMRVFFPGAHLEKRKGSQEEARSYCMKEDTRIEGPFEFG
The method, then: as §1
Assay [3] has as its system T3, Rep nickase domain of cabbage leaf curl virus.
T3 sequence (Rep 1-116, printed without the tag): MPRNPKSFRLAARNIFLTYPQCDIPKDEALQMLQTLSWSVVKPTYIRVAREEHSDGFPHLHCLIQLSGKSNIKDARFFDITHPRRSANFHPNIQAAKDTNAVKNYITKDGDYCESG
The method, then:
as §1

Assay [4] has as its system T4, Rep nickase domain of chickpea chlorotic dwarf virus.
T4 sequence (Rep 1-124, printed without the tag): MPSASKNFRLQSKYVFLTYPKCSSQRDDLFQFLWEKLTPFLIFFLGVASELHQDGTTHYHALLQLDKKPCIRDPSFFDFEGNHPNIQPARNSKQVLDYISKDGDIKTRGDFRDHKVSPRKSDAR
The method, then: as §1
Assay [5] has as its system T5, Rep nickase domain of faba bean necrotic yellows virus.
T5 sequence (Rep 1-98, printed without the tag): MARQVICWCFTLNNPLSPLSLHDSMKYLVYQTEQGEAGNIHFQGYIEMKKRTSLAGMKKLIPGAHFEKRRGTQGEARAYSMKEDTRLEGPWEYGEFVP
The method, then: as §1
The test system of assay [6] is T6, Rep nickase domain of maize striate mosaic virus.
T6 sequence (Rep 1-117, printed without the tag): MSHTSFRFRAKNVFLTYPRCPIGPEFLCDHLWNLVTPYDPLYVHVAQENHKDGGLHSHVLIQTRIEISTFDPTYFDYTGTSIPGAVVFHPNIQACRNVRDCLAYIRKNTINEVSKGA
The method, then: as §1
Assay [7] concerns T7, Rep nickase domain of porcine circovirus 2.
T7 sequence (Rep 2-116, printed without the tag): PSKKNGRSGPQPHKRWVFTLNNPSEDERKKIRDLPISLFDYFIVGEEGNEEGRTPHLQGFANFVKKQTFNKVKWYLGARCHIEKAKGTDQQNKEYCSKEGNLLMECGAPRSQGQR
The method, then:
as §1

Assay [8] deals with T8, Rep nickase domain of tomato yellow leaf curl virus.
T8 sequence (Rep 1-136, printed without the tag): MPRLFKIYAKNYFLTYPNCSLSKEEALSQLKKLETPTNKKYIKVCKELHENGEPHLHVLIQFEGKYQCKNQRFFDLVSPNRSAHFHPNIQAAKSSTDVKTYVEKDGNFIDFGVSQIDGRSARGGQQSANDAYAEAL
The method, then: as §1
The subject of assay [9] is T9, Rep nickase domain of wheat dwarf virus.
T9 sequence (Rep 1-137, printed without the tag): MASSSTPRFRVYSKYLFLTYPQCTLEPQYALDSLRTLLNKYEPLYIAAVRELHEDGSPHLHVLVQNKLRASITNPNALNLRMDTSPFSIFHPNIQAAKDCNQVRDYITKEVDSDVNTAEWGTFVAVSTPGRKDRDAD
The method, then:
as §1

Consider GTCTGCT, for which the “uncleaved DNA left (log2)” value in assay [1] is -0.156; in assay [2], 0.102; in [3] it was 0.102; in assay [4], 0.246; in assay [5], 0.0534; in assay [6], -0.0134. Besides, the “uncleaved DNA left (log2)” value in assay [7] is -0.939; in assay [8], 0.0218; in assay [9], -0.0321.
In the case of AGTCACA, the “uncleaved DNA left (log2)” value in [1] was 0.0473; in assay [2] it was 0.0153; in [3], 0.067; in [4] it was -0.527; in [5] it was -0.0515; in assay [6], 0.196. The “uncleaved DNA left (log2)” value is -0.788 in assay [7], 0.0344 in assay [8] and -0.0275 in assay [9].
With GGCACCC, the “uncleaved DNA left (log2)” value in [1] is 0.0202; in assay [2], -0.0274; in [3], 0.377; in assay [4], 1.01; in assay [5], -0.105; in [6], 1.61. The “uncleaved DNA left (log2)” value in [7] was -0.17; in [8] it was -0.0391; in [9] it was 0.0661.
Take GTGGAGC: the “uncleaved DNA left (log2)” value in assay [1] turned out to be 0.0664; in [2] it was 0.124; in assay [3], 0.462; in [4], 1.08; in assay [5], 0.147; in [6] it was 1.64. Also, the “uncleaved DNA left (log2)” value in assay [7] came out at 0.213; in assay [8] it was 0.17; in assay [9], 0.134.
Consider ATCCCCT, for which the “uncleaved DNA left (log2)” value was 0.0537 in assay [1]; 0.0229 in assay [2]; -0.172 in [3]; -1.33 in assay [4]; -0.00464 in assay [5]; -0.103 in assay [6]. Moreover, the “uncleaved DNA left (log2)” value was -0.13 in [7], -0.039 in assay [8] and 0.0275 in assay [9].
Consider CATACCG, for which the “uncleaved DNA left (log2)” value in [1] is 0.0445; in [2], 0.0533; in assay [3] it was -0.737; in assay [4], -0.558; in [5], 0.00944; in assay [6], -0.934. Further, the “uncleaved DNA left (log2)” value in assay [7] was 0.0578; in assay [8] it was 0.0147; in assay [9], -0.128.
Take GACTATG: the “uncleaved DNA left (log2)” value in assay [1] was -0.0466; in assay [2] it was -0.105; in [3], -0.218; in assay [4], -0.107; in assay [5], -0.104; in assay [6], -0.586. Also, the “uncleaved DNA left (log2)” value is -0.0928 in assay [7], -0.155 in assay [8] and -0.0706 in [9].
As for GTGGCCG, the “uncleaved DNA left (log2)” value in assay [1] is -0.0911; in [2] it was -0.119; in assay [3] it was -0.413; in assay [4], -0.145; in assay [5], -0.0177; in [6], -0.355. Besides, the “uncleaved DNA left (log2)” value in [7] is -0.00397; in [8], -0.0222; in [9], -0.0415.
CGTCGAC: the “uncleaved DNA left (log2)” value in assay [1] was 0.0225; in assay [2] it was -0.089; in assay [3], 0.0411; in assay [4] it was 0.267; in [5], -0.0553; in [6], -0.143. Moreover, the “uncleaved DNA left (log2)” value was 0.075 in [7], -0.0251 in [8] and -0.0598 in assay [9].
For the sequence CAGTTGG, the “uncleaved DNA left (log2)” value in assay [1] is -0.0401; in [2], -0.152; in [3], -0.647; in assay [4], -0.662; in assay [5], -0.00475; in assay [6] it was -1.25. Also, the results for the “uncleaved DNA left (log2)” value in assay [7], in assay [8] and in assay [9] were -0.222, -0.0294 and -0.167, respectively.
With TTTGTTA, the “uncleaved DNA left (log2)” value was -0.16 in [1]; -0.17 in [2]; -0.0418 in [3]; -0.857 in [4]; -0.00935 in assay [5]; -0.27 in assay [6]. The results for the “uncleaved DNA left (log2)” value in [7], in assay [8] and in [9] were -0.173, 0.0449 and -0.11, respectively.
Regarding CGTAACC, the “uncleaved DNA left (log2)” value in assay [1] was -0.176; in assay [2], -0.0274; in [3] it was -0.267; in assay [4], -0.861; in assay [5], -0.0771; in assay [6] it was -0.332. Further, the “uncleaved DNA left (log2)” value is -0.707 in assay [7], -0.0443 in assay [8] and -0.031 in [9].
For CAGTATT, the “uncleaved DNA left (log2)” value in assay [1] is -3.94; in assay [2], -3.77; in assay [3], -3.58; in assay [4] it was -3.14; in assay [5], -4.62; in assay [6], -1.78. Moreover, the “uncleaved DNA left (log2)” value in [7] is -4.38; in assay [8], -0.169; in assay [9], -2.32.
As to CCTTGGT, the “uncleaved DNA left (log2)” value in assay [1] was -0.101; in assay [2], -0.0113; in assay [3], -0.0229; in assay [4] it was -0.349; in assay [5], 0.0879; in assay [6] it was -0.538. The “uncleaved DNA left (log2)” value is -0.922 in [7], 0.0964 in assay [8] and 0.0162 in assay [9].
